About 220 (0.56%) of roughly 39,000 compounds showed activity. Some of the results follow.
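Also: static incubation at 37 °C against the wild-type strain, values averaged over two biological replicates.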

This assay has as its system Escherichia coli K-12 BW25113. The experiment in a line: relative growth (OD600 normalised to plate interquartile mean) (fraction); higher = less growth inhibition, active = 0.2 or less. As to conditions: 50 µM; LB; incubation time: overnight (16-24 h).
`CC[C@@H](C(=O)[C@@H](C)[C@@H](O)[C@H](C)[C@@H]1O[C@@H]([C@@H](CC)C(=O)O)CC[C@@H]1C)[C@H]1O[C@]2(C=C[C@@H](O)[C@]3(CC[C@@](C)([C@H]4CC[C@](O)(CC)[C@H](C)O4)O3)O2)[C@H](C)C[C@@H]1C`: the relative growth is inactive: 0.909.
Next, `CS(=O)(=O)N1CCO[C@]2(COCCN(Cc3ccncc3)C2)C1`: inactive: 0.898; `C[C@@H]1NC[C@@H]2CCCN2C1=O`: inactive: 0.956.
For `Cn1ccnc1C(=O)N[C@H]1CN[C@@H]2CCCO[C@@H]12` the value was inactive: 1.03; for `CO[C@H]1[C@@H](O)[C@@H](C)O[C@H](O[C@H]2CC[C@@]3(C)[C@H]4CC[C@@]5(C)[C@@H](C6=CC(=O)OC6)CC[C@]5(O)[C@@H]4CC[C@]3(O)C2)[C@@H]1O`, inactive: 0.989; for `C=CCC1(C(C)CCC)C(=O)N=C([S-])NC1=O.[Na+]` (configuration not stated), inactive: 1.03.
Turning to `CCN(Cc1ccc(Cl)nc1)C(=C[N+](=O)[O-])NC`, the relative growth was inactive: 0.954.
Take `O=[N+]([O-])C(Br)(CO)CO`: the relative growth is active: 0.0475.
For `NCCc1nccs1` the value was inactive: 0.991; for `CCOC(=O)C1C(C=C(C)C)C1(C)C` (configuration not stated), inactive: 1.07.
As to `CC(C)(C)c1ccc(O)cc1`, the relative growth is inactive: 0.998.
On to `[N-]=[N+]=Nc1ccccc1C[C@]1(C(N)=O)N=C(c2ccc(OCCCO)cc2)O[C@H]1c1ccccc1N=[N+]=[N-]`, for which the relative growth is inactive: 1.03.
For `COCC(=O)N1[C@@H]2Cn3c(ccc(C4=CCCC4)c3=O)[C@H]1[C@@H](C(=O)OC)[C@@H]2CO`, the relative growth was inactive: 1.01.
On to `CN(C)C(=O)[C@]1(Cc2ccccc2CN=[N+]=[N-])N=C(c2ccc(OCCCO)cc2)O[C@@H]1c1ccccc1N=[N+]=[N-]`, for which the relative growth is inactive: 1.02.
For `CC=C(C)C(=O)OC1CCC2(C)C3CCC4C5(O)CC(O)C6(O)C(CN7CC(C)CCC7C6(C)O)C5(O)CC42OC13O.Cl` (configuration not stated) the value was inactive: 1.07; for `CN(C)C(=O)Oc1cccc([N+](C)(C)C)c1.[Br-]`, inactive: 1.19; for `C=CCOC(=O)[C@@H]1[C@H](C(=O)OC)N(C)[C@@H](c2ccccc2)[C@]12C(=O)Nc1ccc(I)cc12`, inactive: 1.04.
Next, `CC(=O)c1c(O)c(C)c(O)c(Cc2c(O)c3c(c(C(=O)/C=C/c4ccccc4)c2O)OC(C)(C)C=C3)c1O`: inactive: 0.958.
For the compound `CC(=O)N1CCCC[C@]12CCNC2`, the relative growth is inactive: 0.984.
Regarding `N[C@@H]1C[C@H]1c1ccccc1`, the relative growth is inactive: 1.01.
For `CCN1C[C@H]2C[C@H](C(=O)NCC3CC3)[C@@H](C1)O2` the value was inactive: 0.983.
Next, `NC[C@@H](CC(=O)O)c1ccccc1`: inactive: 1.01; `CNc1ccccc1C(=O)O`: inactive: 0.802; `NCCc1ccc([N+](=O)[O-])cc1`: inactive: 1.03.
For `C1COC2(CN1)CNC2` the value was inactive: 0.981; for `ClC(Cl)=C(c1ccc(Cl)cc1)c1ccc(Cl)cc1`, inactive: 1.01.
As to `Cl.O=C1CCC2(O)C3Cc4ccc(O)c5c4C2(CCN3CC2CC2)C1O5` (configuration not stated), the relative growth is inactive: 1.03.
For `CCCCCCCCCC(=O)O[C@@H]1[C@@H](C)[C@@]2(O)[C@@H](C=C(CO)C[C@]3(O)C(=O)C(C)=C[C@@H]23)[C@@H]2C(C)(C)[C@]12OC(=O)CCCCCCCCC` the value was inactive: 1.03; for `CN(C)C(=O)[C@@]1(Cc2ccccc2N=[N+]=[N-])N=C(c2ccc(OCCCO)cc2)O[C@H]1c1ccccc1N=[N+]=[N-]`, inactive: 1.03; for `C[C@H]1CN([C@@H](C)CO)C(=O)CCCn2cc(nn2)CO[C@@H]1CN(C)C(=O)Oc1ccc2ccccc2c1`, inactive: 1.01.
In the case of `NC(Cc1ccccc1)Cc1ccccc1`, the relative growth is inactive: 0.999.
For `CC(C)C[C@@H]1C(=O)N2CCC[C@@H]2[C@]2(O)O[C@@](NC(=O)[C@@H]3C=C4c5cccc6[nH]cc(c56)C[C@@H]4N(C)C3)(C(C)C)C(=O)N12` the value was inactive: 1.04; for `C1CO[C@H]2[C@@H](C1)CNC[C@H]2N1CCOCC1`, inactive: 0.967; for `CN1[C@H](CO)[C@H]2c3ccccc3NC[C@H]21`, inactive: 0.978.
Next, `N=C(N)NOCCC(N)C(=O)O` (configuration not stated): inactive: 0.832; `C1CCC(NC2CCCCC2)CC1`: inactive: 0.978; `C[C@]12CC/C(=N\OCCN)C[C@@H]1C(=O)C[C@@H]1[C@@H]2CC[C@]2(C)C(=O)CC[C@@H]12`: inactive: 0.987.
Turning to `CN[C@@H]1[C@@H]2[C@H]3CCN2C[C@H]1O3`, the relative growth was inactive: 0.989.
For `NC(=O)c1cc([N+](=O)[O-])cc([N+](=O)[O-])c1` the value was inactive: 0.926; for `Cc1cccc([C@H](CN)N(C)C)c1`, inactive: 1.01; for `O[C@H]1[C@H](O)[C@@H](O)CO[C@H]1NCCc1ccccc1`, inactive: 1.01.
For `[N-]=[N+]=NCc1ccccc1C[C@]1(C(=O)NCCN2CCOCC2)N=C(c2ccc(OCCCO)cc2)O[C@H]1c1ccccc1N=[N+]=[N-]` the value was inactive: 1.01; for `C[C@@H]1CN([C@@H](C)CO)C(=O)CCCn2cc(nn2)CO[C@H]1CN(C)C(=O)Oc1ccc2ccccc2c1`, inactive: 0.989.
Consider `O=[N+]([O-])OC1COC2C(O[N+](=O)[O-])COC12` (configuration not stated), for which the relative growth was inactive: 1.01.
For `COc1cc2c3cc1Oc1c(OC)c(OC)cc4c1C(Cc1cccc(c1)Oc1ccc(c(O)c1)CC3N(C)CC2)N(C)CC4.Cl.Cl` (configuration not stated) the value was inactive: 1.03; for `CNCC(=O)c1ccc(O)c(O)c1`, inactive: 1.11.
For `Nc1ccccc1-c1ccccc1` the value was inactive: 0.981; for `COc1ccc(OC(=O)N(C)C[C@@H]2OCc3ccccc3-c3c(n(C)c4ccccc34)C(=O)N([C@@H](C)CO)C[C@@H]2C)cc1`, inactive: 1.04; for `Oc1cc2c(cc1O)CNCC2`, inactive: 0.999.
As for `CN[C@@H](C)Cc1cnccn1`, the relative growth was inactive: 1.04.
Next, `CC[C@@H](C)C(=O)O[C@H]1[C@H](O)[C@H]2[C@@H](CN3C[C@@H](C)CC[C@@H]3[C@@]2(C)O)[C@H]2C[C@]34O[C@]5(O)[C@@H](OC(=O)[C@@](C)(O)CC)CC[C@@]3(C)[C@@H]5[C@@H](OC(C)=O)[C@@H](OC(C)=O)[C@@H]4[C@@]21O`: inactive: 1.02; `CC(C)[N+](C)(CCC(C(N)=O)(c1ccccc1)c1ccccc1)C(C)C.[I-]`: inactive: 1.05; `NC1=NC(=O)N2C[C@@H]12`: inactive: 0.969.
Next, `CC1=C2CCC3C4CCC(=O)C4(C)CCC3C2(C)CCC1=O` (configuration not stated): inactive: 1.12.
Turning to `CN1C(=O)[C@@]23C[C@]4([C@@]56C[C@]78SS[C@](CO)(C(=O)N7[C@@H]5Nc5ccccc56)N(C)C8=O)c5ccccc5N[C@H]4N2C(=O)[C@@]1(CO)SS3`, the relative growth was inactive: 0.917.
As for `FCCN1C[C@H]2CCN[C@H]2C1`, the relative growth is inactive: 1.01.
For the compound `Cn1c(CCN)nc2ccccc21`, the relative growth is inactive: 0.944.
As for `CC12C(=O)OC(=O)C1(C)C1CCC2O1` (configuration not stated), the relative growth was inactive: 0.928.
Next, `NC(=O)N1C[C@@H]2C[C@H]1CN2`: inactive: 1.07.
As for `CNC[C@@H](O)c1ccc(O)c(OC)c1`, the relative growth is inactive: 0.97.
Next, `CC(N)(Cc1ccccc1)c1ccccc1` (configuration not stated): inactive: 0.997; `C[C@@H](N)C(=O)N[C@@H](CO)C(=O)N[C@H](C(=O)N[C@H](C(=O)N[C@H](C(=O)N[C@@H](CC(N)=O)C(=O)N[C@@H](Cc1ccc(O)cc1)C(=O)N[C@H](C(N)=O)[C@@H](C)O)[C@@H](C)O)[C@@H](C)O)[C@@H](C)O`: inactive: 1.01; `CC(C)NC(=O)[C@H]1CCS(=O)(=O)[C@H]2CNC[C@@H]12`: inactive: 0.994.
Next, `NSC(=S)N1CCCC1`: inactive: 0.694; `NCc1cccnc1`: inactive: 0.976; `NCCc1[nH]nc2c1CCCC2`: inactive: 1.01.
For the compound `NCCc1ccncc1`, the relative growth was inactive: 1.02.
For `C=C[C@H]1CN2CC[C@@H]1C[C@@H]2CO` the value was inactive: 0.954; for `NC(=O)c1ccc(N)nc1`, inactive: 0.986; for `C[C@@H](N)Cc1c[nH]c2ccc(OCc3cccs3)cc12`, inactive: 0.98.
As to `NC[C@@H]1CCCN2CCCC[C@H]12`, the relative growth was inactive: 0.968.
Next, `C=CCSSCC=C`: inactive: 1.01; `C[C@@H]1CN([C@H](C)CO)C(=O)CCCn2cc(nn2)CO[C@@H]1CN(C)C(=O)Oc1cccc2ccccc12`: inactive: 0.993; `C[C@H](CO)N1C[C@H](C)[C@@H](CN(C)C(=O)Oc2ccccc2)OCc2ccccc2-c2c(n(C)c3ccccc23)C1=O`: inactive: 0.984.
On to `CCOC(=O)CC(SP(=S)(OC)OC)C(=O)OCC` (configuration not stated), for which the relative growth is inactive: 1.05.
For `CC(C)N1CCO[C@H]2CN(C(=O)N(C)C)C[C@@H]21`, the relative growth is inactive: 0.967.
For `COc1cc2c(c(OC)c1OC)-c1ccc(OC)c(=O)cc1C(NC(C)=O)CC2` (configuration not stated) the value was inactive: 1.01.
Next, `CCCCOC(=O)c1ccccc1C(=O)OCCCC`: inactive: 1.11; `Cc1cc(OC(=O)N(C)C)cc(=O)n1C`: inactive: 1.02.
Consider `Cc1nc[nH]c1CCN`, for which the relative growth is inactive: 1.01.
For `C[C@H]1CN([C@@H](C)CO)C(=O)CCCn2nncc2CO[C@H]1CN(C)C(=O)Oc1ccc2ccccc2c1` the value was inactive: 1.02; for `O=C(NC(=O)c1c(F)cccc1F)Nc1ccc(Cl)cc1`, inactive: 1.17.
Regarding `CN1CCc2cc([C@H](CN)N(C)C)ccc21`, the relative growth was inactive: 0.996.
For `CC[N+]1(C)CCCC(OC(=O)C(O)(c2ccccc2)c2ccccc2)C1.[Br-]` (configuration not stated) the value was inactive: 1.04; for `Cc1ncc(CNC(=O)N(CCCl)N=O)c(N)n1.Cl`, inactive: 1.09.
Turning to `[N-]=[N+]=NCc1ccccc1C[C@]1(C(=O)N2CCCCC2)N=C(c2ccc(OCCCO)cc2)O[C@H]1c1ccccc1N=[N+]=[N-]`, the relative growth was inactive: 1.01.
Next, `CN(C)C(=O)N[C@H]1CN[C@H]2CCCO[C@H]21`: inactive: 0.972.

For the origin of these results see the supplement of paper PMC9446081.
